# Data reported in PubChem BioAssay AID1671194 (National Center for Advancing Translational Sciences (NCATS), 2021).
# Values joined by “and” are separate entries in the source; they are usually repeats but may differ in a detail not shown here. Identical values can stand only once. About 240 (0.17%) of roughly 140,000 compounds were called active. The shares of active, inactive and inconclusive entries below differ from those in the screen. The call rests on the fitted dose curve; in most records, active means well fitted inhibition curve with a large enough effect; inconclusive means small, poorly fitted or top-dose-only effect; inactive means no such curve, though single readings can be large or run the other way. Potencies of inconclusive entries are doubtful fits and often do not repeat.
# Test: Primary qHTS assay for inhibitors of alpha-synuclein gene (SNCA) expression; further: nearly all actives have a fitted effect of over 45% in size;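 on activity change, negative = inhibition: plate controls were DMSO cells for no effect and cell-free wells for full effect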
# Details: HEK-293 SNCA-luciferase knock-in, luminescence, 24 h; activity change, negative = inhibition: at 57.2 µM (top of the series) unless noted
# Potency means the concentration at half of the fitted maximal effect; tags describe the fitted curve by direction and shape.
SMILES,"activity change, negative = inhibition",Potency
Cc1ccc([S+](=O)([O-])N2CCN(c3nccc(Nc4ccccc4Cl)n3)CC2)cc1,inactive: -16.7%,
Cc1ccc(-c2nc(C(=O)NCc3ccccc3F)no2)cc1,inactive: 180%,
O=C(NC1CCN(c2cc(-c3ccccc3)[nH]n2)CC1)c1cc(F)ccc1Cl,inactive: 3.98%,
Cc1ccnc(NS(=O)(=O)c2ccc(NC(=O)Nc3ccc(S(=O)(=O)Nc4nccc(C)n4)cc3)cc2)n1,,active: 0.857 µM
O=C(CSc1c2c(nc3ccccc13)CCC2)Nc1ccc(F)cc1F,,"inconclusive: 39.8 µM [inhibitor, single point]"
CC(CNC(=O)c1sc2ncccc2c1-n1cccc1)c1ccccc1 (stereo unspecified),,"inconclusive: 39.8 µM [inhibitor, single point]"
CC(C)(Oc1ccc(Cl)cc1)C(=O)Nc1cccc(-c2cn3cccnc3n2)c1,,"inconclusive: 11.2 µM [inhibitor, partial curve, poor fit]"
Cc1ccc(S(=O)(=O)N2CCC(OC3CCN(Cc4ccccc4)CC3)CC2)c(C)c1,inactive: -24.6%,
Nc1nonc1-c1nc2ccccc2n1Cc1ccc(Br)cc1,,"inconclusive: 2.51 µM [inhibitor, full curve]"
O=C(NCc1ccccn1)C1CCN(C(=O)c2ncn3c2COC(c2ccc(F)cc2)C3)CC1 (stereo unspecified),inactive: 17.5%,
CCN(CC)CCNC(=O)c1ccc2c(c1)n(Cc1cccc(F)c1)c(=O)c1ccnn12,,"inconclusive: 3.16 µM [inhibitor, single point]"
Cc1ccc(C(=O)NCCSc2c(C)[nH]c3ccccc23)cc1C,,"inconclusive: 39.8 µM [inhibitor, single point]"
CCCCc1ccc(CN2C[C@@H]3CC[C@H](C2)N(Cc2ccccn2)C3=O)s1,,"inconclusive: 8.91 µM [inhibitor, single point]"
CCCS(=O)(=O)NCCc1ncc(C)n1C(C)C,inactive: 17.9%,
CC1(C)C(=O)N(Cc2ccccc2)[C@H]2CN(CC3CCOCC3)C[C@@H]2[S+]1(=O)[O-],,"inconclusive: 2.82 µM [inhibitor, full curve, poor fit]"
FC(F)(F)c1cccc(-c2noc(-c3ccc(NCCN4CCOCC4)nc3)n2)c1,,"inconclusive: 35.5 µM [inhibitor, single point]"
Cc1nc2c(s1)C[C@@H]1[C@](C)(CO)[C@H](O)CC[C@@]1(C)[C@@H]2CC(=O)Nc1ccccc1,inactive: 8.88% [at 87.6 µM],
COc1ccc(N2Cc3c(ncnc3N3CCC(Cc4ccccc4)CC3)N(C)CC2=O)cc1,inactive: -28.6%,
C[C@]1(CO)[C@H]2Cc3sc(NC(=O)c4c(F)cccc4F)nc3[C@@H](CC(=O)O)[C@]2(C)CC[C@H]1O,,"inconclusive: 8.91 µM [inhibitor, single point]"
CCOC(=O)C1(Cc2ccccc2C)CCCN(C(=O)c2csc(C)n2)C1 (stereo unspecified),inactive: 98.1%,
O=C([C@@H]1C[C@H](F)CN1S(=O)(=O)c1ccc(Cl)cc1)N1CCCCC1,,"inconclusive: 39.8 µM [inhibitor, single point]"

SMILES,"activity change, negative = inhibition",Potency
CCOC(=O)c1ccc(NC(=O)Cn2c(-c3cnccn3)nc(C)c(C)c2=O)cc1,,"inconclusive: 6.31 µM [inhibitor, single point]"
COc1ccc(OC)c(CNS(=O)(=O)c2c(C(=O)N3CCC(C)CC3)c(C)n(C)c2C)c1,,"inconclusive: 2.82 µM [inhibitor, single point]"
COc1ccccc1N1CCN(CCCNC(=O)c2cnn(-c3ccccc3Cl)c2C2CCN(C(=O)OC(C)(C)C)CC2)CC1,,"inconclusive: 35.5 µM [inhibitor, single point]"
Cc1ccc(C2=NC3(CCN(C(=O)c4cccc(C#N)c4)CC3)ON2)cc1,,"inconclusive: 39.8 µM [inhibitor, single point]"
O=C(Cc1ccc(Cl)cc1)N1CCC2(CC1)CN(C1CCC1)CC2CO (stereo unspecified),inactive: -5.55%,
O=C(COc1ccc(Cl)cc1)N1CCC[C@H]1c1nc(-c2ccc(F)cc2)no1,,"inconclusive: 11.2 µM [inhibitor, partial curve, poor fit]"
COc1cccc(C(O)c2nc(C(=O)NCc3ccccc3)c(C)o2)c1 (stereo unspecified),inactive: 9.07% [at 87.6 µM],
CC(C)C[C@@H]1N[C@H](C(=O)NCC2CC2)Cc2cn(Cc3ccccn3)c3cccc1c23,,"inconclusive: 56.2 µM [inhibitor, single point]"
CC1CCCCN1C(=O)CSc1nc2ccccc2nc1Cc1ccccc1 (stereo unspecified),,"inconclusive: 39.8 µM [inhibitor, single point]"
O=C(Nc1ccc(S(=O)(=O)Nc2ncccn2)cc1)c1cccc(Cl)c1,,"inconclusive: 7.08 µM [inhibitor, single point]"
CCOc1ccc(N2C(=O)c3[nH]nc(-c4ccccc4)c3C2c2ccc(O)c(OC)c2)cc1 (stereo unspecified),,"inconclusive: 17.8 µM [inhibitor, single point]"
O=C(c1ccc(Cl)cc1)N1CC2(CCN(Cc3cccnc3)C2)Cc2ccccc21 (stereo unspecified),,"inconclusive: 39.8 µM [inhibitor, single point]"
COc1ccc(-c2ccnc(N[C@H]3CO[C@H]4[C@@H]3OC[C@@H]4NS(=O)(=O)c3cccs3)n2)cc1,inactive: -6.74%,
O=c1cc(-c2ccccn2)oc2c(NCc3ccc(F)cc3)nccc12,inactive: -13.5% [at 87.6 µM],
O=C(c1csnn1)N1CCC[C@@]2(CCN(c3ccncc3)C2)C1,,"inconclusive: 14.1 µM [inhibitor, partial curve, poor fit]"
COc1ccc(CNC(=O)c2ccc3c(c2)N=C(C)c2c(C)ccc(C)c2S3)cc1,,"inconclusive: 2 µM [inhibitor, full curve] and inconclusive: 8.91 µM [inhibitor, partial curve, poor fit]"
CCc1[nH]c2c(CNC(=O)CC3NC(=O)c4ccccc43)cc(C)cc2c1C (stereo unspecified),,"inconclusive: 3.16 µM [inhibitor, full curve, poor fit]"
O=C1NCc2ccccc2CC12CCN(Cc1ccsc1)CC2,,"inconclusive: 50.1 µM [inhibitor, single point]"
O=C(CCc1ccnc(N2CCOCC2)c1)NCCN1CCc2ccccc2C1,inactive: -13.3%,
CNC(=O)c1ccc(Nc2cc(Nc3ccccc3S(=O)(=O)C(C)C)c3cc[nH]c3n2)nc1,inconclusive: -30.4% [inhibitor],
